In PubChem BioAssay AID1963576 (National Center for Advancing Translational Sciences (NCATS), 2024):
Among all 46,000 compounds or so, about 60 (0.1%) were called active. Inconclusive results (about 3%) are left out. Calls follow the shape of the dose curve; as a rule, active = well fitted inhibition curve with a large enough effect; inconclusive = small, poorly fitted or top-dose-only effect; inactive = no such curve, though single readings can be large or run the other way. This is one part of the list.

Experiment: Primary qHTS assay for Inhibitors of ovarian cancer metastasis using an organotypic tumor microenvironment (TME) model. Also: nearly all actives have a fitted effect of over 65% in size.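 As to activity change, negative = inhibition: plate controls were DMSO wells for no effect and tomatine positive control wells for full effect.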
Settings: SKOV3ip1-GFP adhesion/invasion on 3D omental model, fluorescence; series mostly up to 45.8 µM; activity change, negative = inhibition: at the top concentration
Method in brief: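 A 3D layer of primary human omental fibroblasts, mesothelial cells, fibronectin and collagen I, grown 48 hr, received SKOV3ip1-GFP cells in serum-free medium plus compounds at 0.36-46 umol/L. After 2 hr RT and 16 hr 37 C, fixed adherent GFP cells were counted; normalized to DMSO and tomatine.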

| Structure (SMILES) | activity change, negative = inhibition | outcome |
| --- | --- | --- |
| O=C(NCc1cccc(F)c1)C1CCCN(C(=O)N2CCOc3ccccc32)C1 (stereo not drawn) | inactive: -8.55% |  |
| CCOC(=O)CSC1=Nc2ccccc2C2=NC(CCC(=O)NCc3ccc(F)cc3)C(=O)N12 (stereo not drawn) | inactive: -6.61% |  |
| COc1ccc(OCC(=O)N2CCC(c3nc4ccccc4s3)CC2)cc1 | inactive: 8.15% |  |
| CCCCOc1ccc(C(=O)Nc2ccc3oc(-c4cccnc4)nc3c2)cc1 | inactive: -5.17% |  |
| CCOc1cc(C(=O)NCc2ccc3c(c2)CCN3C(=O)c2ccc(F)cc2)cc(OCC)c1OCC | inactive: -14.7% |  |
| O=C(NC1CCCC1)c1ccc(CSc2nc3ccncc3n2Cc2cccc(F)c2)cc1 | inactive: -25.1% |  |
| COc1ccc(CNC(=O)C(C)Sc2nc(-c3ccccc3)cc(C(F)(F)F)n2)cc1 (stereo not drawn) | inactive: 1.77% |  |
| CCc1ccccc1NC(=O)C1CCN(S(=O)(=O)c2ccccc2)CC1 | inactive: 6.22% |  |
| O=C(O)CCCc1c[nH]c2ccccc12 | inactive: -16.2% |  |
| Cc1c2cnn(CC(=O)NCC(C)c3ccccc3)c(=O)c2c(C)n1Cc1cccc(Cl)c1 (stereo not drawn) | inactive: 4.83% |  |
| CC1Cc2cc(S(=O)(=O)NCCc3ccc(Cl)cc3)ccc2N1C(=O)C1CCC1 (stereo not drawn) | inactive: 0.939% |  |
| CCn1ccc2cc(S(=O)(=O)N3CCC(C(=O)NCCc4ccccc4Cl)CC3)ccc21 | inactive: -0.329% |  |
| O=C(c1cc(Cc2n[nH]c(=O)c3ccccc23)ccc1F)N1CCN(C(=O)C2CC2)CC1 | inactive: -0.334% |  |
| Cc1cccc(C(=O)Nc2ccc(-c3nc4ncccc4o3)cc2C)c1 | inactive: 23.8% |  |
| CC(C)OCCCNC(=O)c1cn(C)c2ccc(S(=O)(=O)N3CCCCCC3)cc2c1=O | inactive: -4.16% |  |
| CCc1ccc(C(=O)c2cnc3ccc(F)cc3c2S(=O)(=O)c2ccccc2)cc1 | inactive: -10.4% |  |
| Cc1ccc(CNC(=O)c2ccc3c(c2)c(C)c(C)n3Cc2ccccc2)o1 | inactive: -21.4% |  |
| COCCOC(=O)C1=C(C)NC2=C(C(=O)CC(c3ccccc3OC)C2)C1c1cccc(O)c1 (stereo not drawn) | inactive: 8.03% |  |
| O=C(COc1ccccc1Cl)OCc1cc(=O)n2nc(C3CCCCC3)sc2n1 | inactive: -5.21% |  |
| Cc1oc2ccc(O)c(CN3CCCC3)c2c1C(=O)Nc1ccccc1 | inactive: -8.45% |  |
| CCCn1c(=O)c2sccc2n2c(CCCC(=O)NC3CCC(C)CC3)nnc12 (stereo not drawn) | inactive: -12.4% |  |
| CCCCOc1ccc(C(=O)NCCc2csc(-c3cccc(F)c3)n2)cc1 |  | inactive |
| Clc1ccc2c(c1)C(N1CCNCC1)=Nc1ccccc1O2 | inactive: 0.0498% |  |
| Cc1ccc(CNC(=O)CN2C(=O)CCn3nc(-c4ccccc4)cc32)cc1 | inactive: 0.788% |  |
| COc1ccccc1NC(=O)C(C)Sc1nnc2ccc3ccccc3n12 (stereo not drawn) | inactive: 1.03% |  |

| Structure (SMILES) | activity change, negative = inhibition | outcome |
| --- | --- | --- |
| CCc1cccc2c(-c3ccccc3)nc(SCC(=O)Nc3ccccc3OC)nc12 | inactive: -6.57% |  |
| Cc1ccc(-n2ncc(C(=O)NCc3cccs3)c2C2CCN(C(=O)OC(C)(C)C)CC2)cc1 | inactive: 13% |  |
| COc1ccc(OC)c(CCNC(=O)CCc2cn(Cc3cc(C)ccc3C)c3ccccc23)c1 | inactive: -9.14% |  |
| CC1Cc2cc(S(=O)(=O)CCC(=O)NCc3ccc(Cl)cc3)ccc2N1C(=O)C1CC1 (stereo not drawn) | inactive: 5.97% |  |
| COCCOC(=O)C1=C(C)NC(=O)NC1c1cn(-c2ccccc2)nc1-c1ccccc1 (stereo not drawn) | inactive: 0.939% |  |
| CC(C)Nc1cc(C(F)(F)F)cc2nc(NC(=O)c3cccnc3)nn12 | inactive: -0.628% |  |
| Cc1ccc(Cl)cc1NS(=O)(=O)c1ccc2c(c1)NC(=O)CCS2 |  | inactive |
| O=C(Cn1c(=O)c2cccn2c2ccc(F)cc21)N1CCN(c2ccccc2F)CC1 | inactive: -9.58% |  |
| CN1CCN(C(CNC(=O)c2ccccc2F)c2ccc3c(c2)OCO3)CC1 (stereo not drawn) | inactive: 2.11% |  |
| O=C(Cn1c(=O)nc(-c2ccccc2)c2ccccc21)NCCc1ccc(Cl)cc1 |  | inactive |
| COc1ccc(C(=O)N(Cc2cc(OC)c(OC)c(OC)c2)c2ccccn2)cc1 | inactive: 9.24% |  |
| COc1ccc(Br)cc1CNC(=O)c1cnc2sc(N3CCCC3)nn2c1=O | inactive: 9.08% |  |
| COc1cccc(C2NC(=O)c3n[nH]c(-c4cccs4)c32)c1 (stereo not drawn) | inactive: -3.38% |  |
| Fc1ccc(-n2ncc3c(NCCCn4ccnc4)ncnc32)cc1 | inactive: 26.8% |  |
| COc1ccc(-c2cn3nc(N4CCCC(C(=O)Nc5cc(C)ccc5C)C4)sc3n2)cc1 (stereo not drawn) | inactive: -4.38% |  |
| COc1cc(NC(=O)NCC2CCN(Cc3ccccc3Cl)CC2)cc(OC)c1OC | inactive: -2.22% |  |
| Cc1cccc(-n2cc(-c3ccccc3)c3c(N4CCC(C)CC4)ncnc32)c1 | inactive: 4.63% |  |
| COc1ccc(NC(=O)c2sc3nc(-c4cc5ccc(OC)cc5oc4=O)[nH]c(=O)c3c2C)cc1 | inactive: 3.35% |  |
| CCCCN(CC)CCNC(=O)CCn1cnc2onc(-c3ccc(F)cc3)c2c1=O | inactive: -21% |  |
| Cc1cc2[nH]c(=O)c(=O)[nH]c2cc1S(=O)(=O)N1CCN(c2cccc(C(F)(F)F)c2)CC1 |  | inactive |
| COc1ccc(-c2nc3sc(CCNC(=O)C(=O)Nc4ccccc4C#N)c(C)n3n2)cc1 | inactive: 4.04% |  |
| CCOc1ccc(CNC(=O)c2cc3ccccn3n2)cc1 | inactive: -5.27% |  |
| COc1cccc(-n2c(=O)c3c(C)c(C)sc3n(Cc3ccccc3C#N)c2=O)c1 | inactive: 1.83% |  |
| CCOC(=O)c1ccccc1NC(=O)c1c(C)oc2ncnc(N3CCOCC3)c12 |  | inactive |
| Cc1cccc(-n2c(SCC(=O)Nc3ccc(C)c(C)c3)nc3n[nH]c(C)c3c2=N)c1 | inactive: 35.7% |  |

| Structure (SMILES) | activity change, negative = inhibition | outcome |
| --- | --- | --- |
| COCCCNC(=O)c1ccc(Cn2c(=O)c3ccccc3n(Cc3ccc(Cl)cc3)c2=O)cc1 |  | inactive |
| CCc1cnc2c(c1SC(C(C)=O)C(=O)N(C)C)c(=O)n(C)c(=O)n2C (stereo not drawn) | inactive: 4.47% |  |
| COc1ccc(CCNC(=O)c2ccc(Cn3c(SCc4ccccc4)nc4cccnc43)cc2)cc1 | inactive: 9.2% |  |
| O=C(CCn1c(=O)c2ccccc2n(CC(=O)Nc2ccc(F)cc2)c1=O)NCCc1ccccc1 | inactive: 11.3% |  |
| COc1cc(NC(=O)c2nn(C)c3c2COc2ccccc2-3)cc(OC)c1OC |  | inactive |
| CCOc1ccccc1NC(=O)C1=C(C)Nc2ncnn2C1c1ccco1 (stereo not drawn) | inactive: -9.68% |  |
| Cc1ccc(C(=O)N(Cc2ccco2)c2ccccn2)cc1 | inactive: -7.76% |  |
| O=C(CN1CCN(Cc2ccccc2F)C1=O)NCc1ccccc1 |  | inactive |
| COc1ccc(CC(=O)NCC(c2cccs2)S(=O)(=O)c2ccc(F)cc2)cc1 (stereo not drawn) | inactive: 4.08% |  |
| Cc1ccc(CNC(=O)c2c(Nc3ccccc3C)sc(C(=O)c3ccc(F)cc3)c2N)cc1 | inactive: -21.9% |  |
| COc1cccc(-c2nn(C)c3sc(C(=O)NCc4ccc(OC)cc4OC)cc23)c1 | inactive: -14.6% |  |
| COc1ccccc1NC(=O)c1cnn(-c2ccccc2)c1-n1cccc1 |  | inactive |
| COc1ccccc1C(=O)Nc1ccc(C(=O)OCc2cc(=O)n3c4c(sc3n2)CCCC4)cc1 | inactive: -18.5% |  |
| CCOc1ccc(C2C(C(N)=O)=C(C)Nc3nc(SCc4ccccc4F)nn32)cc1 (stereo not drawn) | inactive: 3.83% |  |
| Cc1ccc(CNC(=O)c2c(Nc3c(C)cccc3C)sc(C(=O)c3ccccc3)c2N)cc1 | inactive: 15.3% |  |
| Cc1cccc(NC(=O)Cn2c(=O)n(Cc3ccccc3)c(=O)c3oc4ccccc4c32)c1C | inactive: 2.93% |  |
| CCc1ccc(C2CC(=O)Nc3c2c(=O)nc2c(C)cccn32)cc1 (stereo not drawn) | inactive: 1.6% |  |
| CC(C)c1ccc(NC(=O)c2ccc(CN3CC(=O)N4CCCCC4C3=O)cc2)cc1 (stereo not drawn) | inactive: 10.8% |  |
| Cc1cc(C)c(NC(=O)C(=O)NCCc2csc(-c3ccc(F)cc3)n2)c(C)c1 |  | inactive |
| O=C(O)CCn1ccc2cc(S(=O)(=O)N3CCCCCC3)ccc21 | inactive: 0.457% |  |
| CSc1ccc(CCNC(=O)c2csc3c2CCCCC3)cc1 |  | inactive |
| CN(C)c1ccc(CNC(=O)c2ccc3nc(Cc4ccccc4)oc3c2)cc1 |  | inactive |
| Cc1nc2nc(NCc3ccc(Br)cc3)[nH]n2c(=O)c1Cc1ccccc1 | inactive: 1.03% |  |
| CCCCOc1ccc(C(=O)Nc2cccc(-c3nc4ccccc4o3)c2C)cc1 | inactive: -4.59% |  |
| Cc1ccc(-n2c(=O)c3oc4ccccc4c3n(Cc3cccc(F)c3)c2=O)cc1C | inactive: 7.07% |  |

| Structure (SMILES) | activity change, negative = inhibition | outcome |
| --- | --- | --- |
| Cc1ccc(C(=O)c2c(N)c(C(=O)Nc3cccc(C(F)(F)F)c3)c3ccccn23)cc1 |  | inactive |
| Cc1cccn2c(=O)c(C(=O)N3CCN(c4ccccc4)CC3)cnc12 | inactive: 1.14% |  |
| O=C(CSc1nc2c(oc3ccccc32)c(=O)n1-c1ccccc1)Nc1ccc(F)c(Cl)c1 |  | inactive |
| Fc1ccc(N2CCN(c3ncnc4onc(-c5ccc(Cl)cc5)c34)CC2)cc1 |  | inactive |
| COc1ccc(OC)c(NC(=O)C2=C(C)C(=O)OC23CCN(C(C)C)CC3)c1 | inactive: 79.5% |  |
| COc1cccc(C2C(C(N)=O)=C(C)Nc3ncnn32)c1 (stereo not drawn) |  | inactive |
| CCc1ccc(-n2c(=O)c3ccccc3n(Cc3ccccc3C#N)c2=O)cc1 |  | inactive |
| CC(C)c1ccc(NC(=O)c2ccc(=O)n(Cc3ccccc3)c2)cc1 | inactive: -9.53% |  |
| CCCC(=O)Nc1ccc2oc(-c3ccc(O)c(Br)c3)nc2c1 | inactive: -6.24% |  |
| O=C(c1ccc2c(c1)N(Cc1ccc(Cl)cc1)C(=O)c1ccccc1S2(=O)=O)N1CCOCC1 |  | inactive |
| CCCCC(CC)CNC(=O)CCCCCn1c(=O)[nH]c2ccsc2c1=O (stereo not drawn) |  | inactive |
| CCOc1ccccc1NC(=O)Cn1c(=O)n(Cc2ccco2)c(=O)c2sc3ccccc3c21 |  | inactive |
| CCOC(=O)c1c(NC(C)=O)c2c3c(sc2n1Cc1cc(C)ccc1C)CCCC3 |  | inactive |
| Cc1ccc(N(CC2=NCCN2)c2cccc(O)c2)cc1 | inactive: -3.72% |  |
| CCC(O)c1nc2ccccc2n1Cc1cc(C)ccc1C (stereo not drawn) | inactive: 3.09% |  |
| Cc1ccc(C)c(N2CCN(C(=O)Cn3nc(C)c4sc5ccccc5c4c3=O)CC2)c1 | inactive: 13% |  |
| COc1ccccc1N(CC(=O)Nc1ccccc1C(F)(F)F)S(=O)(=O)c1ccc(C)cc1 | inactive: 0.353% |  |
| COc1ccc(N2CC(NC(=O)COc3cccc(C)c3)CC2=O)cc1OC (stereo not drawn) |  | inactive |
| COc1ccccc1NS(=O)(=O)c1cn(C)c(C)n1 | inactive: 6.81% |  |
| COc1ccc(-c2nc(CSCC(=O)NCCC(C)C)c(C)o2)cc1OC | inactive: 9.74% |  |
| O=C(CC1Sc2ccccc2NC1=O)Nc1cccc(C(F)(F)F)c1 (stereo not drawn) | inactive: -28.1% |  |
| COc1ccc(OC)c(NC(=O)C(C)n2c(=O)c(-c3ccccc3NC(C)=O)nc3ccccc32)c1 (stereo not drawn) |  | inactive |
| Cc1ccc(NC(=O)C2CCN(S(=O)(=O)c3ccc4c(c3)CCCC(=O)N4)CC2)cc1N(C)C | inactive: -1.89% |  |
